Source: PubChem BioAssay AID686979 (National Center for Advancing Translational Sciences (NCATS), 2013)
Out of some 420,000 compounds screened, about 50,000 (12%) were called active. The inconclusive results got no clear call from the source; some entries with a clear call stand among them for comparison. Calls follow the shape of the dose curve; as a rule, active = well fitted inhibition curve with a large enough effect; inconclusive = small, poorly fitted or top-dose-only effect; inactive = flat fitted curve, though single readings scatter. No potency is given beside an inconclusive call; the fits are too rough.

Test: qHTS for Inhibitors of human tyrosyl-DNA phosphodiesterase 1 (TDP1): qHTS in cells in presence of CPT; also: nearly all actives have a fitted effect of over 55% in size
Details: chicken DT40 Tdp1-/-;hTDP1 cells + 20 nM CPT, ATP luminescence, 48 h; activity change, negative = growth inhibition: at 46.2 µM (top of the series) unless noted
Outline: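 Chicken DT40 Tdp1-/- cells complemented with human TDP1, 400 cells/well, exposed to compounds plus 20 nM camptothecin for at least 48 h at 37 C; viability read as ATP content by CellTiter-Glo luminescence.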
% is scaled to controls: 0 for no effect and ±100 for the full control effect; potency is read from the fitted curve at half-maximal effect; tags tell the direction and shape of the fitted curve.

Row | SMILES | Potency | activity change, negative = growth inhibition
1 | COc1ccc(NC(C)=O)cc1NC(=O)CN1CCN(CC(=O)Nc2ccc(Cl)cc2)CC1 | inactive | 
2 | CCOc1ccc(NCc2nnc(SCC(=O)Nc3cc(C)on3)n2-c2ccccc2OC)cc1 | inconclusive [inhibitor, single point] | 
3 | CCC(=O)N1CCc2cc(S(=O)(=O)NCCC(=O)Nc3ccc(CC)cc3)ccc21 | inconclusive [inhibitor, single point] | 
4 | Cc1nc(C)n(CC(O)COc2ccc3c(c2)CCC3)n1 (stereo not drawn) | inactive | 
5 | CCOc1ccc(NC(=O)c2oc3ccccc3c2NC(=O)C(C)(C)C)cc1 | inconclusive [inhibitor, single point] | 
6 | COc1ccc(Br)cc1/C=C/c1ccc2cccc(O)c2n1 | inconclusive [inhibitor, single point] | 
7 | CCOC(=O)C1CCN(C(=O)c2cccc(S(=O)(=O)Nc3ccc(C)cc3C)c2)CC1 | inconclusive [inhibitor, single point] | 
8 | Cc1nnsc1C(=O)Nc1cccc(Cl)c1C | inactive | 
9 | N#C/C(=C\c1cccs1)C(=O)c1ccccc1Cl | active: 29.1 µM | 
10 | Cn1nc(-c2ccccc2)c(/C=N/O)c1Cl | inactive | 
11 | CCOc1ccccc1C(=O)Nc1ccc(S(=O)(=O)N2CCN(C)CC2)cc1 | inconclusive [inhibitor, single point] | 
12 | CCn1c(SCC(=O)N2CCN(c3ccccc3)CC2)nnc1-c1cc2cc(Cl)ccc2o1 | inconclusive [inhibitor, single point] | 
13 | COc1ccccc1NC(=O)CSc1oc(-c2ccco2)nc1S(=O)(=O)c1ccc(C)cc1 | active: 23.1 µM | 
14 | CCc1cccc2c(C(=O)COC(=O)c3cccc(S(=O)(=O)N(C)C4CCCCC4)c3)c[nH]c12 | inconclusive [inhibitor, partial curve] | 
15 | CCOC(=O)C1(C)CCN1C(=O)c1ccco1 (stereo not drawn) | inactive | 
16 | CS(=O)(=O)Nc1cccc(-c2ccc3ncnc(N4CCOCC4)c3c2)c1 | active: 4.11 µM | 
17 | CCn1c(=O)n(CC)c2cc(N3CCCC3)c(NC(=O)c3cc(Cl)ccc3OC)cc21 | active: 16.4 µM | 
18 | O=C(O)c1cccc(NS(=O)(=O)c2cc(S(=O)(=O)c3ccc(Cl)cc3)ccc2Cl)c1 | inactive | 
19 | CN(C)c1ccc(C(C(=O)NCC2CCCO2)N(C(=O)c2snc(C(N)=O)c2N)c2ccc3c(c2)OCO3)cc1 (stereo not drawn) | inactive | 
20 | Cc1cc(S(=O)(=O)Nc2c(C)nc3nc[nH]n3c2=O)ccc1F | inactive | 
21 | CNC(=O)CSc1nnc(CCc2ccccc2)n1-c1ccccc1 | inconclusive [inhibitor, partial curve, poor fit] | 
22 | Cc1onc(-c2ccccc2)c1C(=O)Nc1ccc2c(c1)OCCO2 | inconclusive [inhibitor, single point] | 
23 | COC(=O)c1ccc(C23CC4(C2)[C@H](CN(Cc2ccc(C(F)(F)F)cc2)[C@@H]4c2ccccc2)C3c2ccccc2)cc1 (stereo partly drawn) | active: 7.31 µM | 
24 | Cc1nn(-c2cccc(Cl)c2)c2c1C(c1cccnc1)C(C#N)=C(N)O2 (stereo not drawn) | inconclusive [inhibitor, partial curve] | 

Row | SMILES | Potency | activity change, negative = growth inhibition
25 | O=C(CC1N=C2c3ccccc3N=C(SCC(=O)Nc3ccc(F)cc3)N2C1=O)NCc1ccco1 (stereo not drawn) | inconclusive [inhibitor, partial curve] | 
26 | COc1cc(Nc2ncc3c(n2)CCN(Cc2ccc(OC(C)C)c(OC)c2)C3)cc(OC)c1 | active: 16.4 µM | 
27 | N=c1ccn(Cc2c(Cl)cccc2Cl)cc1 | active: 1.3 µM | 
28 | CC(=O)Oc1ccccc1/C=C/c1nc2ccccc2c(=O)o1 | inactive | 
29 | Cc1ccc(C(=O)Nc2nnc(S(=O)(=O)N(C)Cc3ccc(Cl)cc3)s2)cc1 | inconclusive [inhibitor, single point] | 
30 | CC(Cc1cccs1)NC(=O)Nc1cccc(Cl)c1 (stereo not drawn) | inconclusive [inhibitor, single point] | 
31 | COC(=O)[C@@]1(Cc2ccc(F)cc2)[C@H]2c3cc(C(=O)N(C)C)n(CCc4c[nH]c5ccc(O)cc45)c3C[C@H]2CN1C(=O)c1ccccc1 | inconclusive [inhibitor, single point] | 
32 | CSc1nsc(SCC(=O)NCc2ccc(C)cc2)n1 | inactive | 
33 | O=C(COC(=O)/C=C/c1ccc(C(F)(F)F)cc1)NC1CCS(=O)(=O)C1 (stereo not drawn) | inconclusive [inhibitor, single point] | 
34 | C=CSc1sc(Cl)c(N(CC)CC)c1[N+](=O)[O-] | inactive | 
35 | Cc1ccc(NC(=O)/C(=C/c2cccs2)NC(=O)c2ccco2)cc1 | inactive | 
36 | COc1ccc(NC(=O)c2csnn2)cc1Cl | inconclusive [inhibitor, single point] | 
37 | FC(F)(F)c1ccccc1NC(=S)N1CCCCCC1 | inactive | 
38 | Cc1csc(SCC(=O)Nc2ccccc2[N+](=O)[O-])n1 | inactive | 
39 | CCN1CCN(c2nnc(-n3cccc3C(=O)NCc3ccccc3OC)s2)CC1 | active: 16.4 µM | 
40 | Cc1nc(NC(=O)c2csc3ccccc23)sc1C | inconclusive [inhibitor, single point] | 
41 | Cc1ccc(NC(=O)N2CC3CCCN3c3ccccc32)cc1Cl (stereo not drawn) | inconclusive [inhibitor, single point] | 
42 | COc1ccc2nc(NNC(=O)c3cc(=O)c4ccccc4o3)sc2c1 | inconclusive [inhibitor, single point] | 
43 | Cc1cccc[n+]1C1C(c2ccccc2)C(C#N)=C(C(=C=[N-])C#N)NC1(O)C1CC1 (stereo not drawn) | active: 23.1 µM | 
44 | O=C(C1CCN(S(=O)(=O)c2ccc(Cl)c(C(F)(F)F)c2)CC1)N1CCC1 |  | inconclusive: -30.7% [inhibitor]
45 | COc1ccc(S(=O)(=O)N2CCN(c3ccccc3)CC2)cc1C(=O)N1CCCC1 | inactive | 
46 | O=C(c1noc2c1CCCCC2)N1CCN(c2cccc(Cl)c2)CC1 | inconclusive [inhibitor, single point] | 
47 | COc1ccccc1NC(=O)C12CCC(C)(C(=O)C1)C2(C)C (stereo not drawn) | inactive | 
48 | CCn1ccnc1CN1CCc2c([nH]c3ccccc23)C1CC(C)C (stereo not drawn) | inconclusive [inhibitor, single point] | 
